The source of these data is patent US9879008B2, “2,3,4,6-tetra-substituted benzene-1,5-diamine derivatives, preparation method therefor and medicinal use thereof” (SHANGHAI HAIYAN PHARMACEUTICAL TECHNOLOGY CO., LTD., priority 2014, dated 2018).

By IC50 is commonly meant the concentration that inhibits the measured activity by half. A higher IC50 goes with weaker potency in that assay.

The target in test [1] is T1, EGFR T790M/L858R double mutant EGFR kinase (Homo sapiens, UniProt P00533, L858R/T790M). To be noted: ratio of enzyme IC50 values.
In test [2] the target is T1, EGFR T790M/L858R double mutant EGFR kinase. Nature of the test: biochemical.

As to `C=CC(=O)Nc1cc(Nc2ncc(Cl)c(OC3CCN(S(C)(=O)=O)CC3)n2)c(OC)cc1N(C)CCN(C)C` [Compound J-3, N-(5-(5-chloro-4-(1-(methylsulfonyl)piperidine-4-oxy)pyrimidine-2-amino)-2-((2-(dimethylamino)ethyl)(methyl)amino)-4-methoxylphenyl) acrylamide], in test [1], the “Selective inhibitory activity against enzyme [IC50(EGFR WT)/IC50(T790M/L858R)]” value (“Selective inhibitory activity” below) is 4.2. The IC50 in test [2] was determined as 9 nM.

As for `C=CC(=O)Nc1cc(Nc2nccc(OC3CN(c4cccnc4)C3)n2)c(OC)cc1N(C)CCN(C)C` [Compound J-17], the “Selective inhibitory activity” value in test [1] came to 1.3. This molecule showed an IC50 in test [2] of 6 nM.

Consider `C=CC(=O)Nc1cc(Nc2ncc(Cl)c(O[C@@H]3CCN(S(C)(=O)=O)C3)n2)c(OC)cc1N1CCC(N(C)C)CC1` [Compound J-45, (R)—N-(5-(5-chloro-4-(1-(methylsulfonyl)pyrrolidine-3-oxy)pyrimidine-2-amino)-2-(4-(dimethylamino)piperidine-1-yl)-4-methoxyphenyl)acrylamide], for which, in test [1], the “Selective inhibitory activity” value is 13.7. The IC50 in test [2] is 3 nM.

Take `C=CC(=O)Nc1cc(Nc2ncc(F)c(OC3CN(C(C)=O)C3)n2)c(OC)cc1N1CCC(N(C)C)CC1` [Compound J-30]: the “Selective inhibitory activity” value in test [1] was 4.3. The molecule further gave an IC50 in test [2] of 22 nM.

On to `C=CC(=O)Nc1cc(Nc2ncc(Cl)c(OC3CN(S(C)(=O)=O)C3)n2)ccc1N1CCC(N(C)C)CC1` [Compound J-76], for which the “Selective inhibitory activity” value in test [1] is recorded as 14. The molecule also displayed an IC50 in test [2] of 1 nM.

As for `C=CC(=O)Nc1cc(Nc2ncc(C(F)(F)F)c(OC3CN(S(C)(=O)=O)C3)n2)c(OC)cc1N1CCC(N(C)C)CC1` [Compound J-31], in test [1], the “Selective inhibitory activity” value is reported as 13.5. In addition, the midpoint of inhibition in test [2], the IC50, lay at 2 nM.

Consider `C=CC(=O)Nc1cc(Nc2ncc(F)c(SC3CN(S(C)(=O)=O)C3)n2)c(OC)cc1N1CCC(N(C)C)CC1` [Compound J-57], for which the “Selective inhibitory activity” value in test [1] is reported as 4. In test [2], this molecule displayed an IC50 of 1 nM.

`C=CC(=O)Nc1cc(Nc2ncc(F)c(SC3CN(C(C)=O)C3)n2)c(OC)cc1N1CCC(N(C)C)CC1` [Compound J-58]: the “Selective inhibitory activity” value in test [1] is 5.3. In addition, the IC50 in test [2] turned out to be 13 nM.

For `C=CC(=O)Nc1cc(Nc2ncc(Cl)c(OC3CN(C(C)=O)C3)n2)c(OC)cc1N1CCC(N(C)C)CC1` [Compound J-27], the “Selective inhibitory activity” value in test [1] amounted to 12.7. Besides, 9 nM corresponded to half-maximal inhibition in test [2] (IC50).

`C=CC(=O)Nc1cc(Nc2ncc(Cl)c(OC3CCCN(C(C)=O)CC3)n2)c(OC)cc1N1CCC(N(C)C)CC1` (centres unmarked) [Compound J-35]: the “Selective inhibitory activity” value in test [1] is listed as 11.4. This molecule gave an IC50 in test [2] of 7 nM.

For `C=CC(=O)Nc1cc(Nc2ncc(Cl)c(OC3CCN(S(C)(=O)=O)CC3)n2)c(OC)cc1N1CCC(N(C)C)CC1` [Compound J-39], the “Selective inhibitory activity” value in test [1] is on record as 13. Also, in test [2], the IC50 stood at 3 nM.

Consider `C=CC(=O)Nc1cc(Nc2nccc(OC3CN(S(=O)(=O)c4ccccc4)C3)n2)c(OC)cc1N1CCC(N(C)C)CC1` [Compound J-9, N-(2-(4-(dimethylamino)piperidine-1-yl)-4-methoxy-5-(4-(1-(phenylsulfonyl)azetidine-3-oxy)pyrimidino)phenyl)acrylamide], for which the “Selective inhibitory activity” value in test [1] turned out to be 1.8. In test [2], 40 nM corresponded to half-maximal inhibition (IC50).

Take `C=CC(=O)Nc1cc(Nc2ncc(F)c(O[C@H]3CCN(S(C)(=O)=O)C3)n2)c(OC)cc1N1CCC(N(C)C)CC1` [Compound J-52]: the “Selective inhibitory activity” value in test [1] turned out to be 6. This molecule showed an IC50 in test [2] of 8 nM.

In the case of `C=CC(=O)Nc1cc(Nc2ncc(Cl)c(O[C@@H]3CCCN(S(C)(=O)=O)C3)n2)c(OC)cc1N(C)CCN(C)C` [Compound J-40, (R)—N-(5-(5-chloro-4-(1-(methylsulfonyl)piperidine-3-oxy)pyrimidine-2-amino)-2-((2-(dimethylamino)ethyl)(methyl)amino)-4-methoxyphenyl)acrylamide], the “Selective inhibitory activity” value in test [1] is listed as 5.9. This molecule also returned an IC50 in test [2] of 8 nM.

As for `C=CC(=O)Nc1cc(Nc2ncc(Cl)c(NC3CC3)n2)c(OC)cc1N1CCC(N(C)C)CC1` [Compound J-74], the “Selective inhibitory activity” value in test [1] amounted to 6.5. The molecule also yielded an IC50 in test [2] of 33 nM.

For the molecule `C=CC(=O)Nc1cc(Nc2ncc(C(F)(F)F)c(SC3CN(S(C)(=O)=O)C3)n2)c(OC)cc1N1CCC(N(C)C)CC1` [Compound J-59], in test [1], the “Selective inhibitory activity” value was 23. The molecule also yielded an IC50 in test [2] of 1 nM.
